# From US6335355B1, “Crop protection products” (Syngenta Investment Corporation, priority 1995, dated 2002)
# Tested on: Colletotrichum sp. (anthracnose)
Compound,"% action O (found) (Example B10, 100 mg a.i. per liter (ppm))","% action O (found) (Example B10, 5 mg a.i. per liter (ppm))"
manganese ethylenebis (dithiocarbamate) polymer-zinc complex [compound IIL],12%,
"CSC(=O)c1cccc2nnsc12 [compound ID, benzothiadiazole-7-carboxylic acid thiomethyl ester]",,55%

# Like-named read-outs stand apart in the source and are kept apart here.
